Measurements taken from paper PMC12136788.
The other results are listed elsewhere or left out.

B1: chr6:105100707:105100870:-|3pUTR|ENSG00000112276|msi1|FALSE|unique (ssRNA)
RNA: GGGAGUUCUACAGUCCGACGAUCUGAGAUAUAUAUUUUCACAGUCUUUUCUAGAUAUAUUAUUGUUUUAACUUAACAAAUCUUAGCAAUCUCUCAAUGCCUUUUCACUUAUUUUUUUCCAAGUUAUGAUUCUUUUUCCUCACACAACAGAGGAUUGAGCAUCA
B2: chr5:40972473:40972581:+|CDS|ENSG00000112936|unk|total|mutant (ssRNA)
RNA: GGGAGUUCUACAGUCCGACGAUCAAAACCUUUCUACACAGUUGGUGAGAAGGUGACUGUUUCCUGUUCAGGUGGCAUGUCCUCCGAAGGUCCUUCAGCAUUUCUCUGUGGCUCCAGCCUUAAGUGGAGUCCUGAGAUGAAGAACAACAGAGGAUUGAGCAUCA
B3: chr1:153948111:153948329:-|CDS|ENSG00000160741|control|control|control (ssRNA)
RNA: GGGAGUUCUACAGUCCGACGAUCCCUGGCCGGAGUGCCUGGCUUUGAGGUGUCAGCAGCUGGAUUGGAGCUAGGGCUUGGGCUAGAAGAUGAGCUGCGCAUGGAGCCACUGGGCCUGGAAGGGCUAAACAUGCUGAGUGACCCCAACAGAGGAUUGAGCAUCA
B4: chr2:27041412:27041530:+|3pUTR|ENSG00000119777|msi1_unk|FALSE|overlapping (ssRNA)
RNA: GGGAGUUCUACAGUCCGACGAUCACUUCAAAAUGCCCAGCCUGCCCCAAAUGCCUCUAAGCCCCUCCCUGUCCCCUCCCUUGUAGUCCUACUUCUUCCAACUUUCCAUUCCCCAUCAUGCUGGGGGUCUUGGUCACAAGGCUCCAACAGAGGAUUGAGCAUCA
B5: chr17:30468017:30468118:+|3pUTR|ENSG00000108582|unk|total|mutant (ssRNA)
RNA: GGGAGUUCUACAGUCCGACGAUCGCUAAAAUUUUGGGGAUAUGAUUUGGGUCUUUGAUUAAUGUCAGCUGAACUUGGAUUUCCCGUUCAUGAAGAAAUCUCUCCCAAUACCCAUUUAUCCUAUUUUCCGCAAUAAUUCGUUAACAACAGAGGAUUGAGCAUCA
B6: chr17:79834786:79834887:-|CDS|ENSG00000141582|unk|total|mutant (ssRNA)
RNA: GGGAGUUCUACAGUCCGACGAUCAAUGAUGCCGGCCCCCAAAGAGGCUGUGACGGGCAACGGGAUUGGGGGCAAGAUGAAGACCGUCAAGAACAAGAACAAGAACGGACGCAUCGUGAUCGUGAUGAGCAAAUACAUGGAGAACAACAGAGGAUUGAGCAUCA
B7: chr15:34852525:34852627:-|3pUTR|ENSG00000021776|unk|total|mutant (ssRNA)
RNA: GGGAGUUCUACAGUCCGACGAUCCCCGCAUUUCCCAAACUUAUCCGAGCAUAAAACUUUGUUUUUGUUUUUUUUUAAUAAGACCGGCCGCUAUUUCCUCCGAACACAGUUUGGGAAACUUUUUGUUCAUUUGUUUUAAUAAGACAACAGAGGAUUGAGCAUCA
B8: chr11:58422334:58423261:-|CDS|ENSG00000172365|control|control|control (ssRNA)
RNA: GGGAGUUCUACAGUCCGACGAUCACACACUAGUGAGGUGAUUCUGGUUUUUAUGUCAAGCUUUAAUAUCUUUUUUGUUCUUCUAGUUAUCUUUAUCUCCUACUUGUUCAUAUUCAUCACCAUCUUGAAGAUGCAUUCAGCUAACAACAGAGGAUUGAGCAUCA
B9: ENSG00000107863:be:win_4751|CDS|ENSG00000107863|bound_else_gene|NA|bound_elsewhere_windowed (ssRNA)
RNA: GGGAGUUCUACAGUCCGACGAUCCCUCAGAUUAUUCCACCACAUCGUCUGCUACAUACUUGACUAGCCUGGACUCCAGUCGACUGAGCCCUGAGGUGCAAUCCGUGGCAGAGAGCAAGGGGGACGAGGCAGAUGACGAGAGAACAACAGAGGAUUGAGCAUCA
B10: chr15:60490033:60490134:-|3pUTR|ENSG00000069667|unk|total|mutant (ssRNA)
RNA: GGGAGUUCUACAGUCCGACGAUCUGCUGGAUUUGGGACAUGCUUUUCUCUUUAAAUACAUAAUAUCAUUAUAUAAAUUAUUCCCGAGUGUAUUUAAUCCGGAUAAAAUUACUUCCUCCGUAUGGAUAUUUGACAUCUACCGGGCAACAGAGGAUUGAGCAUCA
B11: chr19:35623609:35623710:+|3pUTR|ENSG00000249115|unk|total|mutant (ssRNA)
RNA: GGGAGUUCUACAGUCCGACGAUCGCCUUCCCGUUUGUACCGUUUCUUUUUUUACAUGUAAAUCAGCCAUUUGGAAUUUAUCCCCGCACAUGGAUCCAAUUUUGUCUUAUUUUACAUAUAUCCCCGCCGCACUUACUGAAAUUCCAACAGAGGAUUGAGCAUCA
B12: chr6:63788104:63788249:-|CDS|ENSG00000188107|control|control|control (ssRNA)
RNA: GGGAGUUCUACAGUCCGACGAUCUAAAUCCAUUAUCGCCCCAGGAAGACUGGUUGGUCUCAAUGUCUUCAGUCAGUUUUAUGUAGGUGGCUACAGUGAAUACACUCCAGAUCUCUUACCAAAUGGAGCAGAUUUUAAAAAUGGCAACAGAGGAUUGAGCAUCA
B13: chr5:41382290:41382405:-|CDS|ENSG00000182836|unk|FALSE|unique (ssRNA)
RNA: GGGAGUUCUACAGUCCGACGAUCGGCCAAAAAGCUCAUGCGGAAAUGGUUAGCCACUCAGACAAUGAAUUUUACUGGCCAGCUAGGAGCUGGAAUUCGUUAUUUUGAUCUUCGAAUUUCCACCAAGCCCAGAGACCCCGACAACAACAGAGGAUUGAGCAUCA
B14: ENSG00000135299:stop:overlap|stop_codon|ENSG00000135299|stop_codon|NA|stop_codon (ssRNA)
RNA: GGGAGUUCUACAGUCCGACGAUCACAUUAAAAGUUUAGAAGAGGAACUUGCCAAACUAAGGACUAGGGUGCAGAAGGAAAAUUAGCACCAAUAAAGAGGAAAUAUGAAAGGAUUCUUGAAGAUUUCCAGUUUUGCAACUGCAUCAACAGAGGAUUGAGCAUCA
B15: chr17:55392621:55394333:-|three_prime_utr|ENSG00000108960|control|control|control (ssRNA)
RNA: GGGAGUUCUACAGUCCGACGAUCACUGUGAAAGUAUAAAGGCUGUGUUCUGGAAUUUUCUGCCUCACAGCAAAUAAAUAAGGUAGUGAAUUAAUUAUUCAUUCCAUUCCACUAUCAUGAAGGACUCUGAAUAGACUUGGCCAACAACAGAGGAUUGAGCAUCA
B16: chr7:151395775:151396196:-|CDS|ENSG00000187260|control|control|control (ssRNA)
RNA: GGGAGUUCUACAGUCCGACGAUCCAGCGGCUGCUGCCACCAGACGCUGCGGGGCCACACGGGUGCAGUGCUGUGCCUAGUGCUAGACACGCCCGGCCACACGGCCUUCACAGGCAGCACCGACGCCACCAUCCGUGCCUGGGACAACAGAGGAUUGAGCAUCA
B17: chr11:36273890:36273991:-|3pUTR|ENSG00000110442|msi1|total|mutant (ssRNA)
RNA: GGGAGUUCUACAGUCCGACGAUCGGUGAAGAAGUGGGAAUAAUUGGAACUAAACAACAGUUCUAAAACUUCCAUGAUUUUUGCCGCUUCUUUUGUCCCCAAGUUGAAGCUUUUGGCCAGUACCUUCUCCCGUUUUUAAAGAUGCAACAGAGGAUUGAGCAUCA
B18: chr8:103442975:103443076:+|3pUTR|ENSG00000164934|msi1|total|mutant (ssRNA)
RNA: GGGAGUUCUACAGUCCGACGAUCGGACCCGAUUAAUUGCAAACAUUUCCGUUAUAUGUGCCGAGCUUUAUUGUUACUCCUUUCCGCUACCCUGAAAAAUGAUCCUUAAAGGUGGCCCCGUUGGUAAGACUGUUUUAUCCUUAACAACAGAGGAUUGAGCAUCA
B19: ENSG00000147256:stop:overlap|stop_codon|ENSG00000147256|stop_codon|NA|stop_codon (ssRNA)
RNA: GGGAGUUCUACAGUCCGACGAUCCAUUGCUCCGUGUGCCCCGGGAGAAGGAGGCCAAAACUGGCGUCAGCUACUUCUUUCCUUAGAUGUUUUUCCUUCUAUAAGGUGCCAGACAGGGGAAAAGGGUGGGGGUACAUCUGGGAUCAACAGAGGAUUGAGCAUCA
B20: chr5:148442723:148442824:+|3pUTR|ENSG00000145868|unk|total|mutant (ssRNA)
RNA: GGGAGUUCUACAGUCCGACGAUCUUAUGAGCUUAAAAAAAAGUGAGUUUGAGAGGGAAAUGGAAAAGUUUCCAGAGUAUUUCCCGUAAUUUAUUUCCACAUUGAAUUGUGUAUAUGCUUUAUCUUGAAUAUAAAAUAAAAGUUCAACAGAGGAUUGAGCAUCA
B21: chr13:48512728:48512895:-|CDS|ENSG00000136161|control|control|control (ssRNA)
RNA: GGGAGUUCUACAGUCCGACGAUCCUUUACCUGGGGUCAUAAUGCUUAUAGCCAGCUGGGCAAUGGGACAACUAAUCAUGGUUUAGUGCCCUGUCAUAUCUCUACUAAUCUGUCAAACAAACAAGUCAUUGAAGUUGCCUGUGGCAACAGAGGAUUGAGCAUCA
B22: chr9:88477803:88477904:+|3pUTR|ENSG00000106723|msi1|FALSE|bound_elsewhere (ssRNA)
RNA: GGGAGUUCUACAGUCCGACGAUCGACAAUACAAGACAUGAAUCUAUGUAUAAAAUUUAUCGGCCUUUCUCAUUUACCUGCUCUAGUAUUAUUGUAUUGUGUGUGCGUGCGUGUGUGAUGUCAGGCUGCCACGUAAAACUUCAGCAACAGAGGAUUGAGCAUCA

target: MSI1 full-length (mouse, UniProt Q61474 1-362); test: nsRBNS (natural sequence RNA bind-n-seq); RBNS binding buffer (assumed for nsRBNS): 25 mM Tris pH 7.5, 150 mM KCl, 3 mM MgCl2, 0.01% Triton X-100, 500 ug/ml BSA, 20 U/ml SUPERase-In, 4 C; UNK is unkempt and MSI1 is Musashi-1; names of the RNAs are library labels; protein concentration not given here; high values mean tight binding
UniProt Q61474, sequence (Q61474 whole entry): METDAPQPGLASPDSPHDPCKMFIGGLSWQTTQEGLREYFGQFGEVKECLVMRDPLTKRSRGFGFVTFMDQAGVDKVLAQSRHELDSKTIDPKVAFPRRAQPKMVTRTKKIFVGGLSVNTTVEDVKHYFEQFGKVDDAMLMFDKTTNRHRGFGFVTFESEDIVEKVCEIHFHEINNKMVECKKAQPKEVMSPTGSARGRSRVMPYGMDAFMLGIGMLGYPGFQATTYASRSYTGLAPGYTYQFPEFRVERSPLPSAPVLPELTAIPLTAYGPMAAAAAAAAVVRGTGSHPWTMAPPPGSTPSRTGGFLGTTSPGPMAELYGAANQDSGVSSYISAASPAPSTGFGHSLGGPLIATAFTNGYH

| Binder | binding signal |
| --- | --- |
| B1 | 7.46 enrichment R |
| B2 | 0.35 enrichment R |
| B3 | 0.515 enrichment R |
| B4 | 1.21 enrichment R |
| B5 | 0.32 enrichment R |
| B6 | 0.39 enrichment R |
| B7 | 0.769 enrichment R |
| B8 | 23.6 enrichment R |
| B9 | 0.467 enrichment R |
| B10 | 1.77 enrichment R |
| B11 | 0.817 enrichment R |
| B12 | 0.451 enrichment R |
| B13 | 0.308 enrichment R |
| B14 | 0.349 enrichment R |
| B15 | 0.353 enrichment R |
| B16 | 0.339 enrichment R |
| B17 | 0.28 enrichment R |
| B18 | 0.264 enrichment R |
| B19 | 0.404 enrichment R |
| B20 | 1 enrichment R |
| B21 | 0.45 enrichment R |
| B22 | 0.861 enrichment R |
